# Results reported in PubChem BioAssay AID1508642 (National Center for Advancing Translational Sciences (NCATS), 2021).
# Screen size: about 43,000 compounds; about 200 (0.47%) were called active. The shares of active, inactive and inconclusive entries below differ from those in the screen. The call rests on the fitted dose curve; in most records, active means well fitted cell-killing curve with a large enough effect; inconclusive means small, poorly fitted or top-dose-only effect, or effect the other way; inactive means flat fitted curve, though single readings scatter. A potency beside an inconclusive call is a rough fit, not a confirmed value.
# Experiment: Cell viability qHTS assay in S16 Pmp22-F2sN cells; further: nearly all actives have a fitted effect of over 65% in size
# Conditions: S16 Pmp22-F2sN Schwann cells viability, CellTiter-Glo, 24 h; activity change, negative = cytotoxicity: at 57.5 µM (top of the series)
# How it was run: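 Used to flag compounds lowering reporter output through toxicity, this quantitative HTS measures ATP-based CellTiter-Glo luminescence in S16 Pmp22-F2sN Schwann cells after 24 h compound exposure at 37C.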
# On the % scale 0 is the no-effect control and ±100 the full control effect; potency means the concentration at half of the fitted maximal effect; tags describe the fitted curve by direction and shape.
SMILES,Potency,"activity change, negative = cytotoxicity"
CCN(c1ccccc1)S(=O)(=O)c1ccc(NC(=O)c2nc(SC)ncc2Cl)cc1,"inconclusive: 39.8 µM [cytotoxic, single point]",–
O=C(Cn1c(=O)n(Cc2nc(-c3ccccc3)no2)c(=O)c2ccccc21)Nc1cccc(C(F)(F)F)c1,"inconclusive: 22.4 µM [cytotoxic, partial curve, poor fit]",–
CCOC(=O)c1ccc(N2C(=O)c3[nH]nc(-c4ccccc4)c3C2c2ccc(CC)cc2)cc1 (centres undefined),"inconclusive: 31.6 µM [cytotoxic, single point]",–
Cc1ccc(-c2nc(CS(=O)CC(=O)N3CCN(c4ccc(F)cc4)CC3)c(C)o2)cc1 (centres undefined),"inconclusive: 39.8 µM [cytotoxic, single point]",–
CCc1ccccc1NC(=O)C(CC)Oc1ccccc1-c1nnc(-c2ccccc2)o1 (centres undefined),"inconclusive: 2.82 µM [cytotoxic, full curve, poor fit]",–
COc1ccc(C(=O)Nc2c(C(=O)c3ccc(F)cc3)oc3ccccc23)cc1,–,inactive: -1.45%
Cc1cccc(N2CCN(C(=O)Cn3ncc4c([nH]c5ccccc54)c3=O)CC2C)c1 (centres undefined),–,inactive: 12.6%
Cn1cnc(S(=O)(=O)N2CCCC(C(=O)NCc3ccccc3)C2)c1 (centres undefined),"inconclusive: 0.224 µM [rising, full curve, poor fit]",–
COc1ccc(S(=O)(=O)NCCc2sc3nc(-c4ccc(C)cc4)nn3c2C)cc1F,"inconclusive: 4.47 µM [cytotoxic, partial curve]",–
CC(=O)Nc1ccc(NC(=O)c2cc(-c3cccs3)on2)cc1,"inconclusive: 0.1 µM [cytotoxic, full curve, poor fit]",–
COc1ccccc1CNS(=O)(=O)c1ccc2c(c1)CC(C)N2C(=O)C1CCC1 (centres undefined),"inconclusive: 11.2 µM [cytotoxic, partial curve, poor fit]",–
COc1cc(-c2oc3ccc(C)cc3c(=O)c2O)cc(OC)c1OC,–,inactive: -18.2%
CC(C)(C)C(=O)Nc1ccc2nc(SCC(=O)N3CCc4ccccc43)sc2c1,"inconclusive: 22.4 µM [cytotoxic, single point]",–
O=C(Nc1ccc(Br)cc1)C1CCN(c2ncccn2)CC1,"inconclusive: 7.08 µM [rising, full curve, poor fit]",–
CC(=O)c1ccc(C(=O)N(Cc2cccnc2)c2nc3c(C)c(C)ccc3s2)cc1,"inconclusive: 22.4 µM [cytotoxic, single point]",–
CCOC(=O)N1CCN(C(=O)c2ccc3c(c2)N(Cc2cccc(Cl)c2)C(=O)c2ccccc2S3=O)CC1 (centres undefined),"inconclusive: 39.8 µM [cytotoxic, single point]",–
Cc1ccc(-c2nc3ccccn3c2Nc2ccc3c(c2)OCCO3)o1,"inconclusive: 39.8 µM [cytotoxic, single point]",–
O=C1CN(C(=O)COc2ccc(Cl)cc2)C(c2ccc(F)cc2)c2cc(Cl)ccc2N1 (centres undefined),"inconclusive: 39.8 µM [cytotoxic, single point]",–
COC(=O)c1nc2n(n1)C(c1cc(OC)ccc1OC)C=C(c1ccc(Br)cc1)N2 (centres undefined),"inconclusive: 39.8 µM [cytotoxic, single point]",–
Cc1ccc2occ(CC(=O)Nc3ccc(Cl)c(C(F)(F)F)c3)c2c1,"inconclusive: 39.8 µM [cytotoxic, single point]",–

SMILES,Potency,"activity change, negative = cytotoxicity"
CCOCCCn1c(=N)c(C(=O)NC(C)c2ccccc2)cc2c(=O)n3cccc(C)c3nc21 (centres undefined),"inconclusive: 39.8 µM [cytotoxic, single point]",–
Cc1ccc(-c2onc(C)c2C)cc1S(=O)(=O)Nc1cccc(Cl)c1C,–,inactive: -15.4%
CCc1ccc(-n2nc(CO)c(C(=O)NCc3cccnc3)n2)cc1,"inconclusive: 39.8 µM [cytotoxic, single point]",–
CC(=O)Nc1ccc(Nc2c(CCC(C)C)c(C)c(C#N)c3nc4ccccc4n23)cc1,"inconclusive: 39.8 µM [cytotoxic, single point]",–
Cc1ccc(CNC(=O)CCc2nnc3n(C)c(=O)c4sccc4n23)cc1,–,inactive: 10.8%
CCCOc1ccc(C(=O)Nc2ccc(-c3cc4ccccc4oc3=O)c(C)c2)cc1,"inconclusive: 7.08 µM [cytotoxic, full curve]",–
Cc1ccc(Cl)cc1N1CCN(C(=O)c2nn(C)c3c2CS(=O)(=O)c2ccccc2-3)CC1,"inconclusive: 39.8 µM [cytotoxic, single point]",–
Cc1ccc(Cl)cc1NC(=O)c1cc(CN2CCCC2)on1,–,inactive: 24%
COc1ccc(CCNC(=O)CCc2cn(Cc3ccc(F)cc3)c3ccccc23)cc1OC,"inconclusive: 39.8 µM [cytotoxic, single point]",–
COC(=O)c1sccc1S(=O)(=O)N1CCN(c2ccc(Cl)cc2)CC1,–,inactive: 3.62%
Cc1ccc(-c2nc(S(=O)(=O)c3ccccc3)c(SCC(=O)NC3CCCCC3)o2)cc1,"inconclusive: 39.8 µM [cytotoxic, single point]",–
CC1=C(C(=O)OCC2CCCCC2)C(c2cccc(Cl)c2Cl)CC(=O)N1 (centres undefined),"inconclusive: 39.8 µM [rising, single point]",–
Cc1cccc(Cn2c(=O)n(CC3CCC(C(=O)N4CCOCC4)CC3)c(=O)c3sccc32)c1 (centres undefined),"inconclusive: 0.0158 µM [cytotoxic, full curve, poor fit]",–
O=C(NCc1cccs1)c1ccc(Cn2c(SCc3cccc(F)c3)nc3cccnc32)cc1,"inconclusive: 20 µM [cytotoxic, single point]",–
Cc1ccc(Cn2c(SCc3ccc(C(=O)N4CCCCCC4)cc3)nc3ccncc32)cc1,"inconclusive: 39.8 µM [cytotoxic, single point]",–
Cn1nnnc1SCCCNCc1ccccc1OCc1ccccc1Cl,"inconclusive: 25.1 µM [cytotoxic, partial curve]",–
Cc1ccc(NC(=O)CSc2ncc3c(n2)-c2ccc(Cl)cc2N(C)S3(=O)=O)cc1F,–,inactive: 9.51%
COc1ccc(-c2noc(-c3ccc(N4CCN(C)CC4)c([N+](=O)[O-])c3)n2)cc1OC,"inconclusive: 39.8 µM [cytotoxic, single point]",–
COc1ccccc1CCNC(=O)c1ccc2c(c1)c(C)c(C)n2Cc1ccc(Cl)cc1,"inconclusive: 31.6 µM [cytotoxic, partial curve, poor fit]",–
